Source: PubChem BioAssay (NCI)
Where “and” joins values, the source holds several entries; their conditions need not be identical. Equal entries are not always repeated.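 Method: 48-hour compound exposure of cells in 96-well plates, five concentrations, linear interpolation of endpoints. GI50 = concentration required for 50% inhibition of growth. TGI: total growth inhibition.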

Test system: NCI-H322M lung
Test: inhibition of tumour cell growth, NCI panel, 48 h

Structure (SMILES) | GI50 | TGI
c1ccc(C2CC(c3cccc(Nc4ccncc4)c3)=NN2c2ccccc2)cc1 (centres undefined) | 1.63 µM | 3.12 µM
CC(C)(C)OC(=O)NCC(=O)NC1c2ccsc2/C(=N/O)[C@H]1O (some centres undefined) |  | > 100 µM
CCCc1cc(O)c2c3c(c(=O)oc2c1)CN(C)CC3 | > 100 µM | > 100 µM
CC(=O)NNc1nc(C)c(C(/C=C/c2ccc([N+](=O)[O-])cc2)=N/N)s1 |  | > 100 µM
Cc1cc2c(cc1Cl)SC(c1ccccc1)C(=O)NS2(=O)=O (centres undefined) |  | > 100 µM
Nc1ccc(-c2cssc2=S)cc1 |  | > 100 µM
CC1=NNC(=O)C1C1CC(c2c[nH]c3ccccc23)=NNC1=S (centres undefined) |  | > 100 µM
CCN(CC)CCCC(C)Nc1ccnc2cc3ccccc3cc12 (centres undefined) |  | 8.95 µM
Cn1ccnc1C(=O)/C=C/c1ccc(C(=O)Nc2ccc(S(F)(F)(F)(F)F)cc2)cc1 | 3.2 µM | > 14.3 µM
O=C(O)C1=CCCc2ccc3ccccc3c21 |  | > 100 µM
COc1ccc2c(c1)C(=O)N1CCOC1C2C(=O)O (centres undefined) |  | > 100 µM
COC(=O)c1cc2c3c(cc(N(C)C)c2[nH]1)N(C(=O)c1cc2cc(OC)c(OC)c(OC)c2[nH]1)CC3CCl (centres undefined) |  | 0.0209 µM
N/C(=N\S(=O)(=O)c1cccc2nsnc12)Nc1ccc(Cl)cc1 |  | > 100 µM
Cc1nc2ccc(Cl)cc2c2c1CCS2 |  | > 100 µM
COc1ccc(NC(=O)CC(=O)N2N=C(N(CCC#N)c3ccccc3Cl)CC2c2ccccc2)cc1 (centres undefined) |  | > 100 µM
O=C(C=P(c1ccccc1)(c1ccccc1)c1ccccc1)c1cccc(-c2cccc([N+](=O)[O-])c2)c1 |  | > 100 µM
N#CC(c1ccnc(Cl)n1)c1nc2ccccc2s1 (centres undefined) |  | 39.3 µM
CCOC(=O)N1C2C=C(C)C(ON2C(=O)c2ccccc2)C2C(C)C(=O)N21 (centres undefined) |  | > 100 µM
O=c1ccc(N=Nc2ccc([N+](=O)[O-])cc2)ccc1O | 7.04 µM | > 100 µM
COc1cc(C(=O)N2N=C(c3ccc(S(C)(=O)=O)cc3)CC2c2ccco2)cc(OC)c1OC (centres undefined) | 12.2 µM | > 100 µM
CC(C)CC[C@H](O)[C@@H](C)[C@H]1[C@@H](OC2OC(C)C(O)C(O)C2O)C[C@H]2[C@@H]3CC=C4C[C@@H](O)CC[C@]4(C)[C@H]3[C@@H](O)C[C@]12C (some centres undefined) |  | > 100 µM
COc1ccc(-n2cc(-c3cc(OC)c(OC)c(OC)c3)nc2SCc2ccccc2)cc1 | > 100 µM | > 100 µM
O=C(CCC(=O)Nc1cccc(Cl)c1)CC(=O)c1ccc(F)cc1 |  | > 100 µM
CCCCOc1ccc(NC(=O)n2nc(N)c3ccccc32)cc1 | 24.4 µM | > 84.9 µM
O=c1[nH]cnc2c1sc1nc3ccccc3n12 |  | > 100 µM

Structure (SMILES) | GI50 | TGI
CCCN1CC=C(c2cc(C(=O)OCC)[nH]c2-c2cc(C)no2)C1=O |  | > 100 µM
Nc1ccccc1-c1ccc([N+](=O)[O-])cc1 | 89.4 µM | > 100 µM
O=c1c2ccccc2c(Br)c(Br)c2ccccc12 | 30.9 µM | 91.2 µM
O=C(N/N=C(/COc1ccc(Cl)cc1)N=Cc1cccnc1)c1ccncc1 |  | > 100 µM
CC(C)(C)OC(=O)CC(NC(=O)OC(C)(C)C)C(=O)N[C@@H]1CCCC[C@H]1C(=O)OCc1ccccc1 (some centres undefined) |  | > 100 µM
CCOC(=O)/C(=N\OC)C(O)C(F)(F)F (centres undefined) |  | > 100 µM
C=C(C)C1Cc2c(cc(OC)c3c(=O)c4cccc(O)c4oc23)O1 (centres undefined) |  | 96.6 µM
C#CCN(Cc1nc2cc(C(F)(F)F)ccc2nc1-c1ccccc1)c1ccc(OC(F)(F)F)cc1 | 73.4 µM | > 100 µM
Nc1nc(N)c(Cn2ccnc2)c(=O)[nH]1 |  | > 100 µM
Cc1ccc(Cc2n[nH]c(=O)n2/N=C\CC/C=N\n2c(Cc3ccc(C)cc3)n[nH]c2=O)cc1 |  | > 100 µM
CCN(CC)CCCn1cnc2ncccc2c1=O |  | > 100 µM
COc1ccccc1/C=C(\C#N)C(=O)c1ccccc1 |  | > 100 µM
CN(C)c1nc2oc(-c3ccccc3)c(-c3ccccc3)c2c2nncn12 |  | > 100 µM
CC(=O)N1N=C(c2ccc(Nc3nc(Nc4ccc(Cl)cc4)nc(Nc4ccc(Cl)cc4)n3)cc2)CC1c1ccc([N+](=O)[O-])cc1 (centres undefined) | 30.8 µM | > 100 µM
Cc1ccc2c(c1)c1nc3cc(C)c(C)cc3nc1n2CCN(C)C | 1.96 µM | 7.02 µM
O=S(=O)(O)CCCC1S(=O)(=O)OCCOS1(=O)=O |  | > 100 µM
C/C(=C\c1ccccc1)C(=O)NCc1ccc(C(=O)NCCC(C)C)cc1 |  | > 100 µM
CC(C)c1nc2cc(C(F)(F)F)ccc2[nH]c1=O |  | > 100 µM
C1=Nc2ccc(cc2)N=Cc2ccc(cc2)OCc2cccc(n2)COc2ccc1cc2 |  | > 100 µM
O=C(c1ccco1)N(Cc1ccco1)C(=S)Nc1ccccc1 |  | > 100 µM
CS(=O)(=O)OCC1OC(n2ccc(NC(=O)c3ccccc3)nc2=O)CC1OS(C)(=O)=O (centres undefined) |  | > 100 µM
O=C(CC(=O)Nc1cccc(Cl)c1)NNCC(=O)Nc1nnc(-c2ccccc2)s1 |  | > 100 µM
CC1OC(n2ccc(=O)[nH]c2=O)C=C(OC(=O)c2ccccc2)C1=O (centres undefined) |  | > 100 µM
N#CC(/C(=N/NC(=O)C(=O)NN)C(=O)Nc1nc([N+](=O)[O-])cs1)c1ccc(Cl)cc1 (centres undefined) |  | > 100 µM
Oc1ccc(CN2CCC(N3CCOCC3)CC2)c2cccnc12 | 24.9 µM | > 100 µM

Structure (SMILES) | GI50 | TGI
[Cl][Sn]([Cl])([c]1ccccc1)[c]1ccccc1 | 18.3 µM | 32.3 µM
COc1cc(/C=C2/SC(c3ccccc3)N(c3cccc(Cl)c3)C2=O)cc(OC)c1OC (centres undefined) |  | > 100 µM
C/C=C/C1=C(Cl)C(=O)[C@@H](Cl)[C@@]1(O)C(=O)OC |  | 34.8 µM
O=C1NC(=O)C(CC(C(=O)C(=O)Nc2ccccc2Cl)C(=O)c2ccc3ccccc3c2)C(=O)N1 (centres undefined) |  | > 100 µM
O=C(Nc1ccc(F)cc1)Nc1ccccc1CNc1nc(Nc2ccc(OCCN3CCCC3)cc2)ncc1Cl | 1.96 µM | 7.96 µM
N#Cc1c(NC(=S)Nc2ccc(Cl)cc2)sc2c1CCCC2 |  | > 100 µM
CN(c1cc2ncc(=O)[nH]c2cc1NC(N)=NCc1ccc(Cl)cc1)C1CCCCC1 | 8.14 µM | 15.3 µM
N#CC1Cc2cc3c(cc21)OCO3 (centres undefined) |  | > 100 µM
O=[N+]([O-])c1ccccc1N=Nc1c(O)[nH]c2ccc(Br)cc12 |  | 44.8 µM
COC(=O)C1=C(C(=O)OC)C(Cc2ccccc2)(OO)OC1=O (centres undefined) |  | 50.7 µM
O=[N+]([O-])c1ccc(-c2nc3ccc([N+](=O)[O-])cc3[nH]2)cc1 |  | > 100 µM
Cc1ccc(NP(=O)(Oc2ccccc2)N(CCCl)CCCl)cc1 (centres undefined) |  | > 100 µM
CSc1cccc(-n2c3nc(=O)n(C)c(=O)c-3nc3ccccc32)c1 |  | 23.2 µM
Cc1ccc(S(=O)(=O)n2c3c(c4ccccc42)CCN2C(=O)C(S(=O)(=O)c4ccccc4)=CCC32)cc1 (centres undefined) |  | 1.09 µM
N#Cc1cccc(OCc2nc(N)nc(N)c2-c2ccc(Cl)c(Cl)c2)c1 | 2.84 µM | > 100 µM
CCOc1ccc(Nc2nc3c(s2)C(=O)c2ccccc2C3=O)cc1 |  | 34.1 µM
OC1(c2ccc(Cl)cc2)c2c(ccc3c2OCO3)C2=NCCN21 (centres undefined) |  | 54.1 µM
S=C(N/N=C(/c1ccccc1)c1ccccn1)N1CCCCC1 |  | 13.1 µM
CCOC(=O)C1C(c2ccc(OC)cc2)c2c([nH]n(-c3ccccc3)c2=O)CC1(O)OCC (centres undefined) |  | > 100 µM
Cc1cc2cc3cc(C)c(N(C)C)cc3[n+](C)c2cc1N(C)C | 5.13 µM | > 100 µM
CC(C)Nc1ccc(Nc2ccccc2)cc1 | 38.3 µM | > 100 µM
O=S1(=O)C(c2ccccc2)C(N2CCCCC2)C1C1CC2c3ccccc3C1c1ccccc12 (centres undefined) |  | > 100 µM
CCOC(=O)C[C@@H]1C2(C=C[C@@]13CO3)OCC(C)(C)CO2 |  | > 100 µM
COc1ccc2nc3cc(Cl)ccc3c(NCCC[N+](C)(C)CCCCCCCCCCCCCCCC[N+](C)(C)CCCNc3c4ccc(Cl)cc4nc4ccc(OC)cc34)c2c1 |  | 8.18 µM
COc1cc(-n2cc(-c3ccc(F)cc3)nc2SCc2ccccc2)cc(OC)c1OC | > 100 µM | > 100 µM

Structure (SMILES) | GI50 | TGI
CC(C)(O)C#Cc1ccc(/C=C/C(=O)c2ccccc2)s1 | 18.7 µM | 33.7 µM
CC(=O)O[C@@]12CO[C@@H]1C[C@H](O)[C@@]1(C)C(=O)[C@H](O)C3=C(C)[C@@H](OC(=O)[C@H](O)[C@@H](NC(=O)OC(C)(C)C)c4ccccc4)C[C@@](O)([C@@H](OC(=O)c4ccccc4)[C@H]21)C3(C)C | 0.027 µM and 0.0064 µM | 
CC(=O)Oc1cc(C)c2c(c1OC(C)=O)CC1(O2)[C@@H](C)CCC2[C@@]3(C)CC[C@H](OC(C)=O)C(C)(C)C3CC[C@]21C (some centres undefined) |  | > 100 µM
CCCCCCc1cc2cc(-c3nc4ccccc4[nH]3)c(=Nc3ccccc3C)oc2cc1O | 10.6 µM | > 92.1 µM
C=C1[C@H](OC(=O)C(C)C)[C@]23CC4(O)[C@@H]5[C@@]6(C)CCC[C@]57C([C@@H]2C[C@@]1(O)[C@H](O)[C@@H]73)N4C6 |  | > 100 µM
Cc1oc2c(C)c3oc(=O)cc(C)c3cc2c1CNC(=O)[C@@H]1OCCOCCOCCOCCOCCOC1C(=O)O (some centres undefined) |  | > 100 µM
O=C1N(c2ccccc2)C2(c3ccccc3)CC3CCCC13S2 (centres undefined) |  | > 100 µM
Clc1ccc(/C=C/c2cc(N3CCOCC3)c3cc(Cl)c(Cl)cc3n2)cc1 | > 100 µM | > 100 µM
CN(C)CCN(C)CC1COC(C)(C)O1 (centres undefined) |  | > 100 µM
c1ccc2c(c1)sc1c3cnccc3ccc21 |  | > 100 µM
CN(C)Cc1cc(N=Nc2cccc(Cl)c2)ccc1O |  | 61.6 µM
Cc1ccc(N=NC2S/C(=C(\C#N)c3nc4ccccc4[nH]3)N(c3ccccc3)C2=O)cc1 (centres undefined) |  | > 100 µM
CC1=NOC2(C1)C(=O)Nc1ccccc12 (centres undefined) |  | > 100 µM
O=C1Cc2c([nH]c3c(Cl)cccc23)-c2ccccc2N1 |  | > 100 µM
COc1cccc(C2C3=C(COC3=O)N(CCO)c3cc(OC)ccc32)c1 (centres undefined) | 0.468 µM | > 100 µM
COP(=O)(Cc1ccc(/C=C/C#N)o1)OC |  | > 100 µM
N#Cc1ncc(-c2ccc(C(F)(F)F)cc2)c(NCc2cc(C(F)(F)F)cc(C(F)(F)F)c2)n1 | 5.12 µM | 83.8 µM
COc1ccc2c(c1O)C13CCN(C)C(C2)C1CCC1(C3)OCCO1 (centres undefined) |  | > 100 µM
O=C1C2C(C(=O)[N]1[Hg][c]1cccs1)C1(Cl)C(Cl)=C(Cl)C2(Cl)C1(Cl)Cl (centres undefined) | 4 µM | 15.9 µM
COc1ccc2c(c1)CCN=C2Cc1cc(OC)c(OC)cc1CCCl |  | > 100 µM
CCOC(=O)c1c(-c2ccccc2)oc(-c2ccccc2)c1C(=O)OCC |  | > 100 µM
COc1cc2c(cc1O)-c1c(cnn1-c1ccc([N+](=O)[O-])cc1)CCC2 |  | 61 µM
CC(=O)Oc1c(C)c2c(O)c3c1C1=C(OCOC1=C(C)C3=O)/C(C)=C\C(C)(O)C(O)C(C)C(O)C1C(=O)OC(C(C)C1O)C(C)(O)/C=C/C=C(C)C(=O)N2 (centres undefined) |  | > 100 µM
